Screen size: about 340,000 compounds; about 6,900 (2%) were called active. Rule as the data show it: active = inhibition above about 30%; inactive = below that, where a call was filed. This is a selection; strong and weak results do not stand in their true shares. The source gives no active or inactive call for entries shown without one.
target: D(2) dopamine receptor (Homo sapiens) (UniProt P14416); test: HTS Assay for Allosteric Antagonists of the Human D2 Dopamine Receptor: Primary Screen for Antagonists; settings: HEK293 TREx D2 cells, calcium flux, dopamine EC80; at 10 µM; stronger effect = higher value; also: 0% is about no effect
Sequence of UniProt P14416 (P14416 whole entry, looked up): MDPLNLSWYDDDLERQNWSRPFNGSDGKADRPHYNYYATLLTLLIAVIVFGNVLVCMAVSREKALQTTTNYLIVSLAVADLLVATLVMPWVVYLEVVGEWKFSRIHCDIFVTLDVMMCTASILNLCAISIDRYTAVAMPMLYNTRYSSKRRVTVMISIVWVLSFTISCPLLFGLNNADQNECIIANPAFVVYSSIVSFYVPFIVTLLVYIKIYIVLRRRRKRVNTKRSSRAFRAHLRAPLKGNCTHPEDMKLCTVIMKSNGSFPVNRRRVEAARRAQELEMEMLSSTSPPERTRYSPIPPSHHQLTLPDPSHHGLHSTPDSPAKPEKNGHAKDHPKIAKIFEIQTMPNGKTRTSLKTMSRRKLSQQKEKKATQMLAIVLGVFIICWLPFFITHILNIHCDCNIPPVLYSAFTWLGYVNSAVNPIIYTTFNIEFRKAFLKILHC
Procedure, shortened: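 Calcium flux kinetic readout in an inducible HEK293 TREx D2 line plated overnight at 30 C. After 180 s compound exposure, an EC80 dopamine challenge follows with another 180 s kinetic read to detect antagonism.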

Row | Compound | inhibition
1 | Cc1cc(NC(=S)NC(=O)c2ccccc2)ccc1-c1cc2ccccc2oc1=O | active: 63.5%
2 | COc1ccc(-c2c(C)nn3c(-c4ccccc4)cc(C)nc23)cc1OC | -5.27%
3 | Cc1cccc(C)c1NC(=O)Cn1cc(C(=O)c2ccco2)c2ccccc21 | 7.63%
4 | CCc1nc(Nc2ccc(F)c(Cl)c2)c2c3c(sc2n1)CCCC3 | -12%
5 | Cc1cc(C)n(C(C)CC(=O)Nc2cccc(C#N)c2)n1 (centres undefined) | 8.26%
6 | Cc1ccc2c(=O)cc(C(=O)Nc3ccc(S(=O)(=O)N4CCCCC4C)cc3)oc2c1C (centres undefined) | -8.4%
7 | CCN(CC)c1ccc(NS(=O)(=O)c2cc(-c3onc(C)c3C)ccc2OC)c(C)c1 | 8.03%
8 | CCN(CC)CCCNC(=O)Cn1ncc2c3ccccc3n(Cc3ccccc3)c2c1=O | -1.64%
9 | COc1cccc(-c2nnc(SCC(=O)N(C)c3ccccc3)o2)c1 | -6.81%
10 | CC(=O)Nc1cc(C(=O)NCc2ccc(F)cc2)ccc1S(=O)(=O)c1ccc(C)cc1 | -2.03%
11 | CN(C)CCn1cnc2c(c1=N)C(c1ccccc1)c1ccc3ccccc3c1O2 (centres undefined) | active: 61.8%
12 | CCn1c2ccccc2c2cc(CN3CCN(Cc4ccc(Cl)cc4)CC3)ccc21 | 14.9%
13 | CCOC(=O)c1ccc(NC(=O)CC2C(=O)N(c3cccc(OC)c3)C(=O)N2Cc2cccnc2)cc1 (centres undefined) | 8.85%
14 | CC(=O)c1ccc(NC(=O)C(C)n2nc(-c3ccccc3)ccc2=O)cc1 (centres undefined) | 5.29%
15 | CCc1cccc(C)c1NC(=O)CCCn1c(C)c2cnn(-c3ccccc3)c(=O)c2c1C | 8.16%
16 | CCOC(=O)c1[nH]c(C)c(CCC(=O)Nc2ccccc2OCC)c1C | -0.983%
17 | CCCCOC(=O)c1ccc(OC(=O)c2sc3ncn(Cc4cccc(F)c4)c(=O)c3c2C)cc1 | -7.43%
18 | CCC(C)NC(=O)Cn1c(=O)n(CCCCCC(=O)Nc2ccccc2)c(=O)c2sccc21 (centres undefined) | -21.7%
19 | COc1ccc2c(C)c(CCC(=O)NCCc3ccc(OC)c(OC)c3)c(=O)oc2c1 | 2.74%
20 | COc1ccc(C(=O)Nc2nnc(SCc3cc(=O)c4cccc(F)c4[nH]3)s2)cc1 | -16.7%
21 | Cn1c(=O)c2c(nc(NCCCCO)n2Cc2ccccc2Cl)n(C)c1=O | -2.17%
22 | O=C(NCCc1ccc(F)cc1)C(=O)NCC(c1cccs1)S(=O)(=O)c1ccc(Cl)cc1 (centres undefined) | -1.04%
23 | CCS(=O)(=O)N1CC(=O)N(c2ccc(Cl)cc2C)C(C)(C(=O)NC2CCCCC2)C1 (centres undefined) | 0.947%
24 | O=C(CSc1nnc(-c2ccccc2)c(-c2ccccc2)n1)NCCc1ccccc1 | -12.8%
25 | Cc1ccc(C)c(N(C)C(=O)c2cc3c(s2)-c2ccccc2OC3)c1 | 1.97%

Row | Compound | inhibition
26 | CCn1c(=O)c2cc(C(=O)NCc3ccc(F)cc3Cl)sc2c2ccccc21 | -0.0278%
27 | Cc1cc(=O)n(CC(=O)N2CCCc3ccccc32)c2c1c(C)nn2-c1cccc(F)c1 | 0.654%
28 | Cc1c(CNC2CCC(C)CC2)c(C(=O)O)c(C)n1Cc1ccc(Cl)cc1 (centres undefined) | -10.4%
29 | CC(C)c1ccc(NC(=S)N(C)CCc2ccccn2)cc1 | active: 36%
30 | CCc1ccccc1NC(=O)CN1C(=O)C2CCCN2c2ccc(S(=O)(=O)N(CC)CC)cc21 (centres undefined) | -9.36%
31 | COC(=O)c1c(NC(=O)COc2ccc(C)cc2Br)sc2c1CCCC2 | 2.39%
32 | Cc1cccc(NC(=O)C2CCCN(S(=O)(=O)c3ccc4c(c3)oc(=O)n4C)C2)c1C (centres undefined) | 13.4%
33 | Cc1ccc(CNC(=O)CN(C)S(=O)(=O)c2ccc3c(c2)c(=O)n(C)c(=O)n3C)cc1 | 17.9%
34 | CCOc1ccc(N(C)S(=O)(=O)c2cc(-c3cc(C)no3)ccc2OC)cc1 | 7.38%
35 | CCOc1ccccc1CNC(=O)c1nc(-c2ccc(Cl)cc2)n2c1CCCCC2 | 4.03%
36 | Cc1cccc(-c2nc(S(=O)(=O)c3ccc(Cl)cc3)c(N3CCCCCC3)o2)c1 | 0.986%
37 | CCOc1ccc(CCNC(=O)c2c(C)oc3ncn(CC(C)C)c(=O)c23)cc1 | 0.643%
38 | Cc1cccc(CS(=O)(=O)Cc2ccc(C(=O)NCc3ccccc3)o2)c1 | 2.62%
39 | C=CCOc1ccccc1CN1CCC(Oc2ccc(C(=O)N3CCCCC3)cc2)CC1 | active: 47.4%
40 | Clc1ccccc1CNc1ncnc2c1nc1n2CCCC1 | -4.02%
41 | Cc1ccc(C(=O)NCC(c2ccc3c(c2)OCO3)N2CCN(c3ccc(F)cc3)CC2)cc1 (centres undefined) | 18.7%
42 | CCOc1ccccc1NC(=O)Cn1c(=O)n(Cc2nc(C)no2)c(=O)c2ccccc21 | 10.8%
43 | Cc1ccccc1C(=O)Nc1ccccc1OCc1cc(=O)n2ccccc2n1 | 8.89%
44 | CC(C)NC(=O)C1CCC(Cn2c(=O)c3sccc3n(CC(=O)N3CCCC3)c2=O)CC1 (centres undefined) | 1.37%
45 | Cc1ccccc1Nc1cc(C(=O)NC2CCCC2)c2ccccc2n1 | -3.04%
46 | COc1ccc(NC(=O)c2ccc3c(=O)n4nc(Nc5ccccc5C)sc4nc3c2)cc1Cl | 10.9%
47 | Cc1ccccc1C(=O)NCc1nnc(SCC(=O)N2CCN(c3ccccc3)CC2)n1C | active: 38.6%
48 | Cc1cccc(Cn2cc(/C=C(/C#N)C(=O)Nc3cccc(Cl)c3)c3ccccc32)c1 | 16.1%
49 | CCCOc1ccc(NC(=O)CC2C(=O)N(c3ccccc3)C(=O)N2Cc2ccc(F)cc2)cc1 (centres undefined) | 6.3%

Source: PubChem BioAssay AID485344 (National Center for Advancing Translational Sciences (NCATS), 2010)
